In the supplement of paper PMC3334620:
Whole data set: some 33,000 sequences, median “E-score (-0.5 to 0.5)” near -0.054, cut for the highest 2% near 0.35. This is one part of the list.

Biological target: T1, Stb5 (UniProt P38699)
T1 sequence: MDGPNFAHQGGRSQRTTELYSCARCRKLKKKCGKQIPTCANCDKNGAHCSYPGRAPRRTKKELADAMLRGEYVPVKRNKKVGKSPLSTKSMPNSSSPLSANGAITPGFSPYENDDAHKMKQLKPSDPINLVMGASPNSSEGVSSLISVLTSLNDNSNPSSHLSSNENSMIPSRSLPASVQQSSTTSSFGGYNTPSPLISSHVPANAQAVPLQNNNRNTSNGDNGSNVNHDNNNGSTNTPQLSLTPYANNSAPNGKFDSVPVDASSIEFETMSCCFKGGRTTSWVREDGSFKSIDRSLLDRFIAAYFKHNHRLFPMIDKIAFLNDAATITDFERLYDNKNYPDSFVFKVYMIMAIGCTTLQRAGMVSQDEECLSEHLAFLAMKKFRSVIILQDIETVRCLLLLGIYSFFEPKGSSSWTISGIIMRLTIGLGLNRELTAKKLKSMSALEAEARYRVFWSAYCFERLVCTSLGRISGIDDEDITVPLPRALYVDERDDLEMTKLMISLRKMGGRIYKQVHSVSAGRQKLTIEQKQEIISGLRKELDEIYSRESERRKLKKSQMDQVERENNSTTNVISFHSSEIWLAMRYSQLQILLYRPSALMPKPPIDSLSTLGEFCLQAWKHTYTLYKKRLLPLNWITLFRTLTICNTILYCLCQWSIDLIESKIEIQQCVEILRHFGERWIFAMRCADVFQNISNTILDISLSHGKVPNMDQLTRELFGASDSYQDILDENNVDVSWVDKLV
Assay: PBM E-score (8-mer binding enrichment) (E-score (-0.5 to 0.5)); higher = stronger / more preferred TF binding; most listed sequences are background and not binding sites
Conditions: protein concentration: 200 nM; construct: GST-full length
Method: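 Universal 'all 10-mer' protein binding microarrays (Agilent AMADID 015681) probed with GST-tagged S. cerevisiae TFs (full-length or DBD) made by in vitro transcription/translation (PURExpress), about 100-200 nM. Bound TF was detected with fluorescent anti-GST. Each ungapped 8-mer (which stands for itself and its reverse complement) is scored by the PBM enrichment score (E-score), a modified Wilcoxon-Mann-Whitney statistic from -0.5 to +0.5, computed with the Universal PBM Analysis Suite. Scale: above 0.35 generally sequence-specific binding.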

Point of comparison: CGTTCGCA, “PBM E-score” value -0.109. Against it:
- AATGTTAG — lower, -0.142
- GCTCCTGA — higher, 0.0759
- CACAAGCG — higher, -0.0542
- GAGAGAAC — lower, -0.166
- ACTGGAAT — lower, -0.179
- CGCAGGGC — higher, 0.0595
- CGGAATAG — higher, 0.108
- TATCTTCA — lower, -0.256
- CGGTTGCC — higher, 0.00076
- TAACAATA — higher, 0.058
- CAGTGTAC — lower, -0.207
- ACGGCCAC — higher, 0.0882
- ATGGTTGA — lower, -0.174
- CACAACTA — higher, -0.0345
- CTCACAAA — lower, -0.111
- CGCGTGGC — higher, -0.0237
- AATTCAGG — lower, -0.129
- GGTGCTAA — higher, 0.358
- AATCAATG — higher, -0.0889
- AATCTACG — lower, -0.12
- GTGTGAGA — higher, -0.0818
- CCTTTATC — higher, 0.0781
- CTCCCAGC — lower, -0.254
- TAAGGATA — lower, -0.123
- ATTATTCA — higher, 0.0277
- CATTTTGA — lower, -0.218
- CGCTTAAA — higher, 0.123
- CGACCCCG — higher, 0.306
- AGACTACG — lower, -0.125
- GCATACAC — lower, -0.115
- AAATATAG — higher, -0.0318
- GAGGCTCA — lower, -0.116
- CGCACCCC — higher, 0.137
- TAACAGAA — lower, -0.191
- TTAGCCAA — lower, -0.153
- CCGGGTAG — higher, -0.0921
- CGTAACGA — lower, -0.149
- ACTGCGGC — higher, 0.168
- GCTGGGAA — higher, -0.00896
- ATCTCTCA — higher, -0.107
- TAAGTGTA — lower, -0.291
- ATAAGCAT — higher, 0.114
- CAGGTGGG — lower, -0.261
- CAAGATAC — lower, -0.116
- ATGGAAGA — lower, -0.177
- ATGTATAA — higher, -0.0764
- AAGCGATG — higher, -0.0499
- GGAGATTA — higher, 0.287
- GAAAACAA — lower, -0.11
- TGGGCCAA — lower, -0.138
- CATTACGC — higher, 0.146
- ATGTGGGC — higher, 0.089
- CACAGCTA — lower, -0.125
- ACGGACGG — higher, 0.212
- CGATAGGA — higher, 0.108
- GCTCCAGA — lower, -0.201
- AATCCCAC — higher, -0.0963
- CGTCGCCC — higher, 0.0497
- CCCCAGCC — lower, -0.163
- AATCCTCC — higher, 0.154
- ACGGCTGA — lower, -0.134
- CCTTCTTC — lower, -0.17
- AGCGACAC — higher, -0.078
- AACTGTCG — higher, -0.0119
- AGCCGACA — higher, 0.198
- CTATCTCC — higher, 0.235
- CGGTGATC — higher, 0.279
- TGAACGCA — lower, -0.195
- AATCTTCG — higher, -0.0852
- AGGCTCAC — lower, -0.213
- AGCATTTC — lower, -0.135
- CACTTAAA — higher, -0.0235
- CTTCGGAA — higher, 0.215
- ATACTTCG — higher, -0.0376
- GACCCCCC — lower, -0.259
- TAAAAGCA — higher, -0.039
- AGGCCACC — lower, -0.188
- TCTTGGAA — higher, -0.101
- AGAATAAT — higher, -0.0609
- GATCTTGA — higher, -0.0767
- CCAACAAC — lower, -0.113
- AAGCGCCG — higher, 0.396
- GGACGAAA — higher, 0.0804
- CCTCTACA — lower, -0.192
- AAAGTTGA — lower, -0.198
- ATGTTTGG — lower, -0.144
- ATACTAAT — higher, -0.0636
- GCATTGGA — higher, -0.0175
- GCCATGCC — higher, -0.0299
- GAAGGGTA — higher, -0.0478
- CATAATAC — higher, -0.0653
- ATTCTAGC — lower, -0.193
- CAGATATG — higher, -0.0209
- TCAAAGAA — lower, -0.165
- GTGGGTTA — higher, -0.0789
- ATCACAAC — higher, 0.044
- GTACATAC — higher, -0.0452
- AGAGCCTA — lower, -0.296
- AGCGCCGA — higher, 0.342
- TCTGCAAA — higher, -0.0584
- GCAATAGA — lower, -0.12
- AACACGTT — higher, -0.108
- ATGCTATA — higher, -0.0523
- AAGAAATA — lower, -0.123
- CTCCTTTA — higher, -0.0841
- GCTCCACA — lower, -0.113
- GAAAAAGC — higher, 0.137
- CAACTGAC — higher, -0.0534
- ACGAAAAG — higher, 0.0446
- ATACAATG — higher, -0.0364
- GGGGCACC — higher, 0.103
- AACATGGC — lower, -0.178
- AATGGGAA — lower, -0.284
- AAGAAGAT — lower, -0.178
- CGGTGAAA — higher, 0.41
- AAAGTAAA — higher, -0.0754
- ATTGCATC — lower, -0.128
- ATGAGTAA — higher, -0.0997
- AGAAAGTG — lower, -0.168
- CTTTTCCC — higher, 0.117
- AGCTGAGC — higher, -0.102
- CTGCGATC — lower, -0.132
- AAAGGCAT — higher, -0.0751
- AATCCTTG — lower, -0.14
- GGAGGCGA — lower, -0.11
- ATTTGCTG — higher, -0.0919
- TCGCCAAA — lower, -0.248
- CCTCATTA — lower, -0.134
- AAGTCAAC — lower, -0.345
- CAGCGACC — higher, 0.129
- AATATCAC — higher, 0.194
- AGTTCTCG — lower, -0.209
- ATACTTCA — lower, -0.217
- ATCCCCGA — higher, 0.374
- CAATAAGA — the same, -0.109
- ACGGCTCT — higher, 0.155
- ATCTTAAA — lower, -0.119
- CCTTGCTA — lower, -0.176
- GAGCCCCC — lower, -0.149
- CAAGCGGA — higher, 0.223
- ATCTTAAG — higher, 0.0557
- CTTAACTA — higher, -0.0837
- CTAGTGAG — lower, -0.114
- CGTCTGAC — higher, -0.00438
- CAGGTGGA — lower, -0.22
- TGTAACAA — lower, -0.111
- ATTCTCAG — lower, -0.187
- ATCAGAAA — lower, -0.194
- AACGCCCC — higher, 0.0885
- ACTTTCAT — higher, -0.0247
- AATAGGGC — higher, 0.0206
- CAGAACGA — lower, -0.18
- CATAGGAC — higher, -0.108
- AGATCGCC — lower, -0.132
- GGGGAAAA — higher, 0.191
- AGAAACCA — lower, -0.212
- ATCCTAGC — lower, -0.179
- CGGCTGCA — higher, 0.161
- GTTCTACA — higher, -0.00541
- ACCTAAAC — higher, 0.0352
- CCCATACA — lower, -0.324
- ATGCCTGG — the same, -0.109
- ACTTGCAT — higher, 0.0144
- GCTACGTA — higher, -0.0756
- ATTGCAGC — higher, -0.051
- ACAGCGGG — higher, 0.332
- CGACCTAA — higher, 0.017
- CGAGTCTC — lower, -0.227
- GTTTATAA — higher, 0.235
- ACCCGTGC — higher, -0.0288
- CATAGTCA — lower, -0.28
